The campaign covered roughly 48,000 compounds. About 550 (1.1%) were called active. About 4% were inconclusive and are not listed. Rule as the data show it: active = potency below about 15 µM; inconclusive = mostly about 16 µM to 33 µM; inactive = weaker than that. Some of the results follow.
The compounds below were run against Lysosomal acid glucosylceramidase (Homo sapiens) (UniProt P04062) (assay: Glucocerebrosidase). Settings: purified enzyme, resorufin glucoside fluorescence (screen aimed at inhibitors), 20 min.
Sequence of UniProt P04062 (P04062 whole entry, looked up): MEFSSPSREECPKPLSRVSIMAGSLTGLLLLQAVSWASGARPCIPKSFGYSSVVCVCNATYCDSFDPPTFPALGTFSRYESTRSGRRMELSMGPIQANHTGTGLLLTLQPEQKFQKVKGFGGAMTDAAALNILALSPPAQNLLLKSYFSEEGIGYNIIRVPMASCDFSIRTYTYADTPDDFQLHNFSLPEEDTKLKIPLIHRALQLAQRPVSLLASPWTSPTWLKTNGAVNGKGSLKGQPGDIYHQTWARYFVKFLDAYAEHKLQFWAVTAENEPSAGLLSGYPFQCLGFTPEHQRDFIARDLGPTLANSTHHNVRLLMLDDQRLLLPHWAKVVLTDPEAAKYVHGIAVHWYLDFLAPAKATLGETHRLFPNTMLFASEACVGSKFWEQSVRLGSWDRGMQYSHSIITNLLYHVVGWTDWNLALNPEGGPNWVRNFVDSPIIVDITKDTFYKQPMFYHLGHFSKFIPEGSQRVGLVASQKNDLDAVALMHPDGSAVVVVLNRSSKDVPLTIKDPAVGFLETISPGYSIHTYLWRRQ
Procedure, shortened: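 Compounds titrated against 0.2 nM normal enzyme, 30 uM resorufin beta-D-glucopyranoside substrate, citrate/phosphate buffer with taurocholate and tween-20, pH 5.9. Reaction ran 20 min at room temperature; fluorescence (Ex 548/Em 600) gave AC50.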
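Also: the screen sought inhibitors.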
Potency is read from the fitted curve at half-maximal effect.

Potency, inactive:
CCC(C)(C)n1c(=O)[nH]c2c(c1=O)CCC2 > 76.9 µM, CC(C)(C)NC(=O)CN(C(=O)CS(=O)CC(=O)Nc1ccc(F)cc1)c1ccc(Cl)cc1 (configuration not stated) > 76.9 µM, CS(=O)(=O)c1ccc2nc(NC(=O)Oc3ccccc3)sc2c1 > 76.9 µM, O=C(Nc1ccccc1)c1ccc(S(=O)(=O)NCc2ccco2)cc1 > 76.9 µM, CC(=O)c1cccc(NC(=O)NC(C)C2CCCO2)c1 (configuration not stated) > 76.9 µM, COc1cc(CNc2nc3ccccc3[nH]2)cc(OC)c1OC > 76.9 µM, O=C(NC1(C(F)(F)F)Oc2ccccc2O1)N1CCCC1 > 76.9 µM, CCOC(=O)c1cc(-c2ccc3c(c2)OCCO3)nc2c1c(C)nn2CCC#N > 76.9 µM, CCOC(=O)c1nnn(-c2nonc2N)c1CN(C)Cc1ccccc1 > 76.9 µM, COC(=O)c1cccc(-n2nnnc2SCC(=O)Nc2cc(C)on2)c1 > 76.9 µM, COc1ccccc1OCC(O)Cn1c(Br)nc2c1c(=O)[nH]c(=O)n2C (configuration not stated) > 76.9 µM, Cc1cccc(NC(=O)Nc2cc(C)on2)c1 > 76.9 µM, Cc1ccsc1C(=O)OCC(=O)NCc1ccc2c(c1)OCO2 > 76.9 µM, CS(=O)(=O)N(CC(=O)NCC1CCCO1)c1cc(Cl)cc(Cl)c1 (configuration not stated) > 76.9 µM, Cc1nc(SCC(=O)N2CCN(c3ccccc3)CC2)c2oc3ccccc3c2n1 > 76.9 µM, O=C(NCCCN1CCN(C2CCCCC2)CC1)Nc1ccccc1C(F)(F)F > 76.9 µM, CCOc1ccc(N2C(=O)CC(NCCc3ccncc3)C2=O)cc1 (configuration not stated) > 76.9 µM, O=C(Cn1c(=O)oc2ccccc21)Nc1ccc2c(c1)OCCO2 > 76.9 µM, O=C(O)C1Cc2c([nH]c3ccccc23)C(c2ccc3c(c2)OCO3)N1 (configuration not stated) > 76.9 µM, CC1=CC2(C#N)C3(N=C(N)C2(C#N)C(c2ccccc2)N1)OCCO3 (configuration not stated) > 76.9 µM, O=C(O)c1cn(-c2ccccc2)nc1-c1cccnc1 > 76.9 µM, COC(=O)Cc1c(C)nc2nc(NCc3c(F)cccc3Cl)[nH]n2c1=O > 76.9 µM, Cc1nnc(SCCN2C(=O)c3ccccc3C2=O)[nH]c1=O > 76.9 µM, CCOc1ccc2nc(NC(=O)CSC3=NCCS3)sc2c1 > 76.9 µM, COc1ccc(-c2ccc(-c3nnc(-c4cc(OC)ccc4OC)o3)cc2)cc1 > 76.9 µM, COC(=O)c1sc(NC(=O)COc2ccccc2)nc1C > 76.9 µM, CC(C)(C)c1ccc(NC(=O)COC(=O)C2=COCCO2)cc1 > 76.9 µM, C=CCn1cnc2c(c1=O)c1nc3ccccc3nc1n2-c1ccccc1 > 76.9 µM, Cc1cccc2cc(CN(Cc3ccco3)C(=O)NC3CCCCC3)c(=O)[nH]c12 > 76.9 µM, Cn1c(=O)c2c(nc(N3CCCCC3)n2CCCNC2=NCCCC2)n(C)c1=O > 76.9 µM, COc1ccccc1N1CCN(C(=O)COc2ccc(Cl)cc2)CC1 > 76.9 µM, COc1ccc(-c2onc3ccc(Cl)cc23)cc1OC > 76.9 µM, Cc1ccc(NC2=NC(C(=O)Nc3ccc(C)c(C)c3)CC(=O)N2)cc1 (configuration not stated) > 76.9 µM, O=C(NCC1CCS(=O)(=O)C1)NCC1CCS(=O)(=O)C1 (configuration not stated) > 76.9 µM, CCC1CCCN1Cn1cnc2c([nH]c3ccc(OC)cc32)c1=O (configuration not stated) > 76.9 µM, O=C(Cn1cnnn1)Nc1ccccc1Cc1ccccc1 > 76.9 µM, Cc1ccc2nc(NC3=NCN(Cc4ccc5c(c4)OCO5)CN3)nc(C)c2c1 > 76.9 µM, COc1cc(C)c(Cl)cc1S(=O)(=O)N(C)C > 76.9 µM, Cc1c(C(=O)NCc2ccccn2)oc2ccc(S(=O)(=O)N3CCOCC3)cc12 > 76.9 µM, O=C(CN(c1ccc(F)cc1)S(=O)(=O)c1ccc2c(c1)OCCO2)NCc1ccccn1 > 76.9 µM, COc1cc(Br)cc(CN2CCN(C/C=C/c3ccccc3)CC2)c1O > 76.9 µM, Cc1ccc(S(=O)(=O)NCc2ccc(C(=O)NCCCN3CCN(C)CC3)cc2)cc1 > 76.9 µM, Cc1cc(C)c2nc(C(F)(F)F)nc(N3CC(C)OC(C)C3)c2c1 (configuration not stated) > 76.9 µM, CSc1nc2oc3c(c2c2nncn12)CC(C)(C)SC3 > 76.9 µM, Cc1cccc(Nc2ccccc2C(=O)OCC(=O)N2CCOCC2)c1C > 76.9 µM, O=C(CSc1nnc(-c2cccnc2)n1Cc1ccco1)c1ccccc1 > 76.9 µM, O=C(O)C1CCCCC1C(=O)Nc1ccccn1 (configuration not stated) > 76.9 µM, CC(C)(C)OC(=O)N[C@H](Cc1ccccc1)C(=O)N1CCC(C(=O)O)CC1 > 76.9 µM, COc1ccccc1N1CCN(C(c2cc3ccc(C)cc3[nH]c2=O)c2nnnn2C2CCCC2)CC1 (configuration not stated), O=C(NC1CC2CCCC(C1)N2S(=O)(=O)c1ccccc1)c1ccccc1 (configuration not stated) > 76.9 µM, COc1ccccc1NC(=O)CN1CCC(n2c(C)nc3cc(F)ccc32)CC1 > 76.9 µM, CCCS(=O)(=O)N1CCCC(C(=O)NCCCN(C)c2ccccc2)C1 (configuration not stated) > 76.9 µM, O=C(NC1CCc2ccccc21)C1CCN(S(=O)(=O)c2ccc(-n3cnnn3)cc2)CC1 (configuration not stated) > 76.9 µM, CCOC(=O)COc1ccc2nsnc2c1Cl > 76.9 µM, C=CCn1c(C)cc(C(=O)CSc2nnc(NCc3ccccc3)s2)c1C > 76.9 µM, CC(C)(C)NC(=O)C(Cc1ccccc1)NS(=O)(=O)c1cccc2nsnc12 (configuration not stated) > 76.9 µM, Cc1ccc(S(=O)(=O)NC(=O)COc2ccccc2C(N)=O)cc1 > 76.9 µM

From PubChem BioAssay AID360 (National Center for Advancing Translational Sciences (NCATS), 2006)
